In PubChem BioAssay AID894 (National Center for Advancing Translational Sciences (NCATS), 2007):
Where “and” joins values, the source holds several entries; their conditions need not be identical. Equal entries are not always repeated. The campaign covered roughly 150,000 compounds. About 6,500 (4.3%) were called active. Inconclusive results, whose numbers are uncertain, are shown with a selection of clear calls. The call rests on the fitted dose curve; in most records, active means well fitted inhibition curve with a large enough effect (not every such curve was filed as active); inconclusive means small, poorly fitted or top-dose-only effect, or another doubt; inactive means no such curve, though single readings can be large or run the other way. Where the call is inconclusive, the potency comes from a doubtful curve fit.
On the % scale 0 is the no-effect control and ±100 the full control effect; potency means the concentration at half of the fitted maximal effect; tags describe the fitted curve by direction and shape.

The compounds below were run against 15-hydroxyprostaglandin dehydrogenase [NAD(+)] (Homo sapiens) (UniProt P15428) (assay: qHTS Assay for Inhibitors of HPGD (15-Hydroxyprostaglandin Dehydrogenase)). Settings: purified HPGD, NADH fluorescence kinetic, PGE2 substrate; activity change, negative = inhibition: active compounds read low.
Chain of UniProt P15428 (P15428 whole entry, looked up): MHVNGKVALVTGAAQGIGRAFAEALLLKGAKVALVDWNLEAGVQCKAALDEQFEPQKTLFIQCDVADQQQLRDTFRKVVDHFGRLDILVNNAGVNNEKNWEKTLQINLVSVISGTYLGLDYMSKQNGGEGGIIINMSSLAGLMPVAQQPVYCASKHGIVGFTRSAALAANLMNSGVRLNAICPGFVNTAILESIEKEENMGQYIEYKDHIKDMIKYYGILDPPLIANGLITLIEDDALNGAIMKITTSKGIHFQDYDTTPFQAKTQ
Outline: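 20 nM HPGD preincubated 15 min at room temperature with compound in 50 mM Tris-HCl pH 8, 0.01% Tween 20. Started with 1 mM NAD+ and 30 uM prostaglandin E2; NADH fluorescence (360/450 nm) read 5 times over 30-s intervals, last minus first.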
For `Cc1cc(NC(=O)CCS(=O)(=O)c2nc(-c3ccccc3)cc(C(F)(F)F)n2)no1`, the Potency was inconclusive: 28.2 µM [inhibitor, single point].
`CC(C)C1C(C#N)=C(N)Oc2n[nH]c(C(C)(C)C)c21` (stereo unspecified) was tested, and the activity change, negative = inhibition was inactive: -6.2%.
`COc1cccc(-c2nc3ccccc3c(=O)o2)c1` was tested, and the Potency was inconclusive: 31.6 µM [inhibitor, single point].
In the case of `COc1ccc(-c2cc(C(=O)Nc3ccc(C)cc3)no2)cc1`, the Potency was inconclusive: 22.4 µM [inhibitor, single point].
In the case of `Cc1ccc2nc(-c3ccc(NC(=O)CCN4C(=O)c5ccccc5C4=O)cc3)sc2c1`, the Potency was inconclusive: 25.1 µM [inhibitor, partial curve].
In the case of `COC(=O)c1ccc(NC(=O)CN(c2ccc(C)cc2)S(=O)(=O)c2c(C)nn(C)c2C)cc1`, the Potency was inconclusive: 28.2 µM [inhibitor, partial curve].
With `N#Cc1cnn(-c2nc(SCc3ccccc3)nc3sc4c(c23)CCCC4)c1N` the activity change, negative = inhibition was inactive: -24.3%.
With `c1ccc(CNc2ncnc3c2cnn3Cc2ccccc2)cc1` the Potency was inconclusive: 22.4 µM [inhibitor, partial curve].
For `COc1ccc(C2NC(=S)N3C(c4ccc(OC)cc4)NC(=S)N23)cc1` (stereo unspecified), the Potency was inconclusive: 31.6 µM [inhibitor, single point].
In the case of `CC(NC(=O)CCCN1C(=O)c2ccccc2C1=O)c1ccc2c(c1)CCCC2` (stereo unspecified), the activity change, negative = inhibition was inactive: -11.4%.
`COc1ccc(S(=O)(=O)Nc2cc(Sc3ncn[nH]3)c(O)c3ccccc23)cc1` was tested, and the Potency was active: 1.12 µM.
For `CCCCCC/C(C)=C1/SC(=S)NC1=O`, the Potency was active: 12.6 µM.
For `CC1/C=C/C=C/C=C/C=C/C=C/C=C/C=C/C(OC2OC(C)C(O)C(N)C2O)CC2O[C@@](O)(CC(O)CC(O)C(O)CCC(O)CC(O)CC(=O)OC(C)[C@H](C)C1O)CC(O)C2C(=O)O` (stereo partly specified), the Potency was inconclusive: 25.1 µM [inhibitor, partial curve].
With `COc1ccc(C(=O)/C=C(\N)C(F)(F)F)c(O)c1` the activity change, negative = inhibition was inactive: -14.3%.
With `Cc1c(C#N)c(N)nc2c3c(sc12)NC(=O)CC3c1ccccc1` (stereo unspecified) the Potency was inconclusive: 31.6 µM [inhibitor, partial curve].
For `Nc1ccnc(C(F)(F)F)c1C(=O)c1ccccc1`, the activity change, negative = inhibition was inactive: -8.63%.
In the case of `Cc1c(O)c(CN2CCCCC2)cc2c3c(c(=O)oc12)CCC3`, the Potency was inconclusive: 31.6 µM [inhibitor, partial curve].
`Nc1n[nH]c(N)c1N=Nc1ccc(Cl)cc1` was tested, and the activity change, negative = inhibition was inactive: -7.02%.
For `CCc1ccc2nc(NC(=O)c3ccc4c(=O)[nH]c(CN5CCOCC5)nc4c3)sc2c1`, the Potency was inconclusive: 20 µM [inhibitor, partial curve].
With `CC(=O)OCCCNc1cc(SCc2ccco2)c2nonc2c1[N+](=O)[O-]` the Potency was active: 7.94 µM.
`Nc1nc2ncc(=O)[nH]c2c(=O)[nH]1` was tested, and the Potency was inconclusive: 28.2 µM [inhibitor, partial curve].
With `O=C(NC1CCCCCC1)c1cccs1` the Potency was active: 25.1 µM.
`CC(NC(=O)CCC(=O)N1CCN(S(=O)(=O)c2ccc(Cl)cc2)CC1)c1ccccc1` (stereo unspecified) was tested, and the activity change, negative = inhibition was inactive: -5.29%.
With `CNC(=O)c1ccc(-c2ccccc2)s1` the Potency was inconclusive: 28.2 µM [inhibitor, partial curve].
For `CCOC(=O)c1c(C)cccc1OCC(N)=O`, the activity change, negative = inhibition was inactive: -8.57%.
`COc1ccc(C2OC34CCCCC3C(C#N)(C#N)C2(C#N)C(=N)O4)cc1` (stereo unspecified) was tested, and the Potency was inconclusive: 35.5 µM [inhibitor, partial curve].
For `Cc1cc(-c2ccc(Cl)cc2)n2nc(N)nc2n1`, the Potency was inconclusive: 7.08 µM [inhibitor, full curve].
With `Cc1ccccc1NC(=O)CSc1nc2n(n1)CCCCC2` the activity change, negative = inhibition was inactive: -10.6%.
For `Nn1c(Cc2cccc3ccccc23)nnc1SCCOc1ccc(F)cc1`, the Potency was inconclusive: 20 µM [inhibitor, single point].
With `Cc1cccc(-n2ncc3c(N4CCCC4)ncnc32)c1` the activity change, negative = inhibition was inactive: -6.35%.
For `CCOc1ccc(C(=O)NC(=S)Nc2ccc(N3CCCCC3)cc2)cc1[N+](=O)[O-]`, the Potency was active: 31.6 µM.
`CN1CCN(c2ncc3nc(-c4ccc(Cl)cc4)c(=O)n(C4CC4)c3n2)CC1` was tested, and the Potency was inconclusive: 25.1 µM [inhibitor, partial curve].
`CC(C)c1ccc(C2C3CSCC=C3C(C#N)=C(N)C2(C#N)C#N)cc1` (stereo unspecified) was tested, and the Potency was inconclusive: 17.8 µM [inhibitor, partial curve].
In the case of `CCOC(=O)c1sc(NC(=O)c2ccc(S(=O)(=O)N3CCCCC3)cc2)nc1-c1ccccc1`, the Potency was inconclusive: 25.1 µM [inhibitor, partial curve].
With `COc1ccc(OCc2cccc(C(=O)Nn3cc([N+](=O)[O-])cn3)c2)cc1` the activity change, negative = inhibition was inactive: -32.7%.
`CC(C)c1nc2oc3c(NCC4CCCO4)ncnc3c2c2c1CCC2` (stereo unspecified) was tested, and the Potency was inconclusive: 10 µM [inhibitor, partial curve].
`CCOc1ccc(-c2cc(C(=O)NCCCN3CCN(CC)CC3)c3ccccc3n2)cc1` was tested, and the Potency was inconclusive: 15.8 µM [inhibitor, partial curve].
With `CC(C)(c1cc(Br)c(O)c(Br)c1)c1cc(Br)c(O)c(Br)c1` the Potency was inconclusive: 10 µM [inhibitor, partial curve, poor fit].
In the case of `S=c1[nH]nc(-c2cc(-c3ccco3)[nH]n2)n1-c1ccccc1Cl`, the Potency was active: 31.6 µM.
`O=c1[nH][nH]c(-c2ccccc2)c1C=Nc1ccccc1Cl` was tested, and the Potency was inconclusive: 25.1 µM [inhibitor, partial curve].
`Cc1cc(C)nc(SCC(=O)c2cc3ccccc3oc2=O)n1` was tested, and the Potency was active: 17.8 µM.
`CCCNC(=O)N1N=C(c2ccc(N)cc2)c2cc3c(cc2[C@H]1C)OCO3` was tested, and the activity change, negative = inhibition was inactive: -27.8%.
For `Cc1ccccc1Nc1nc(N)nc(CN2C(=O)NC3(CCCCC3C)C2=O)n1` (stereo unspecified), the activity change, negative = inhibition was inactive: 1.55%.
`COC(=O)CSc1nc2ncc(Cl)cc2[nH]1` was tested, and the Potency was inconclusive: 15.8 µM [inhibitor, partial curve].
With `CN1/C(=C\C(=O)CSc2nnc(NCc3ccccc3)s2)C(C)(C)c2ccccc21` the activity change, negative = inhibition was inactive: -20.9%.
With `CCCNc1ccc(S(=O)(=O)N(CC)CC)cn1` the Potency was inconclusive: 39.8 µM [inhibitor, partial curve].
In the case of `CC(C)Sc1n[nH]c2nc3c(c(=O)n12)C1(CCCC1)Cc1ccccc1-3`, the Potency was inconclusive: 25.1 µM [inhibitor, partial curve].
For `CC(C)(C)Nc1oc(-c2ccccc2)nc1-c1cccc2ccccc12`, the activity change, negative = inhibition was inactive: -8.19%.
`Cc1c([N+](=O)[O-])cc(C(=O)Nc2ccc(Cc3ccncc3)cc2)cc1[N+](=O)[O-]` was tested, and the activity change, negative = inhibition was inactive: -9.7%.
`O=c1ccsn1Cc1ccccc1` was tested, and the Potency was active: 20 µM.
For `O=C(COC(=O)C(Cc1ccccc1)NC(=O)c1ccc(Cl)cc1)c1ccc(Cl)cc1` (stereo unspecified), the activity change, negative = inhibition was inactive: -8.95%.
In the case of `O=C(O)c1[nH]c2ccccc2c1NS(=O)(=O)Cc1ccccc1`, the Potency was inconclusive: 28.2 µM [inhibitor, single point].
For `COc1cccc(CN(C)c2nc(-c3cccs3)nc3ccccc23)c1`, the Potency was inconclusive: 28.2 µM [inhibitor, partial curve].
For `CCOC(=O)c1sc(N(Cc2ccccc2)C(=O)CSc2nnc(C3CC3)n2N)nc1C`, the Potency was active: 20 µM.
With `CCOC(=O)c1nn(-c2ccc(Cl)cc2)c2nc(-c3ccc(C)cc3)c(C#N)c(=O)n12` the Potency was inconclusive: 31.6 µM [inhibitor, partial curve].
`COc1cccc2[nH]c(-c3ccccn3)nc12` was tested, and the Potency was inconclusive: 3.55 µM [inhibitor, partial curve].
`CC[C@H](C)[C@@H](NC(=O)O[C@@H]1C(=O)c2cc(OC)ccc2O[C@H]1c1ccc(OC)c(Br)c1)C(=O)OC` was tested, and the Potency was inconclusive: 31.6 µM [inhibitor, partial curve, poor fit] and inconclusive: 39.8 µM [inhibitor, single point].
In the case of `Cc1nn(C(C)C(=O)O)c(=O)c2c1sc1ccccc12` (stereo unspecified), the Potency was inconclusive: 25.1 µM [inhibitor, partial curve].
In the case of `COCCCNC(=O)CCC(=O)Nc1ccc2nc(N3CCOCC3)cc(C)c2c1`, the Potency was inconclusive: 35.5 µM [inhibitor, partial curve].
In the case of `Cc1ccc(NC(=O)c2ccccc2-c2ccc(C(F)(F)F)cc2)cc1S(=O)(=O)N1CCOCC1`, the activity change, negative = inhibition was inactive: -15.9%.
In the case of `CN(C)c1ccc(C(=O)C(O)c2ccc(C(C)(C)C)cc2)cc1` (stereo unspecified), the activity change, negative = inhibition was inactive: -14.5%.
`COCCNc1cc(C)nc2c3c(C)cc(C)nc3nn12` was tested, and the Potency was inconclusive: 22.4 µM [inhibitor, partial curve].
With `CS(=O)(=O)N(CC(=O)Nc1ccc(F)c(F)c1)c1cccc([N+](=O)[O-])c1` the activity change, negative = inhibition was inactive: -4.48%.
`Cc1ccc(CN2CCSCC2)c(C)c1` was tested, and the activity change, negative = inhibition was inactive: -3.5%.
In the case of `Cc1nonc1C(=O)N/N=C/c1ccc(O)c(O)c1`, the Potency was active: 31.6 µM.
In the case of `O=C1c2ccccc2-c2cccc(NS(=O)(=O)c3ccc(C(F)(F)F)cc3)c21`, the activity change, negative = inhibition was inactive: -19.7%.
In the case of `O=C(CSCc1ccccc1Cl)N1CCN(c2ccccn2)CC1`, the Potency was inconclusive: 31.6 µM [inhibitor, partial curve].
With `CO` the activity change, negative = inhibition was inactive: -3.86%.
In the case of `O=c1cc(/C=C/c2ccccc2)oc2ccccc12`, the Potency was inconclusive: 14.1 µM [inhibitor, partial curve].
`COc1ccccc1-n1nnnc1SCc1ccccc1` was tested, and the activity change, negative = inhibition was inactive: -11.6%.
With `CCOC(=O)c1c(N)n(C2CC(C)(C)NC(C)(C)C2)c2nc3ccccc3nc12` the Potency was inconclusive: 25.1 µM [inhibitor, partial curve].
